Results: PubChem BioAssay AID743279 (National Center for Advancing Translational Sciences (NCATS), 2014)
Among all 360,000 compounds or so, about 17,000 (4.7%) were called active. The inconclusive results got no clear call from the source; some entries with a clear call stand among them for comparison. Cut-off read from the data, not from the text of the source: active = activity change below about -50%; inconclusive = mostly about -30% to -49%; inactive = weaker than that.

experiment: qHTS for Inhibitors of Inflammasome Signaling: IL-1-beta AlphaLISA Primary Screen; details: THP-1 LPS/ATP IL-1B secretion, 16 h; at 57.5 µM, stronger effect = lower value
Method in brief: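 THP-1 cells pretreated 1 hr with compounds (up to 57.5 uM final), then stimulated with LPS (250 ng/mL final) plus ATP (1.25 mM final); secreted IL-1B measured by AlphaLISA after 16 hr, decreased signal indicating inhibition.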
% is set by controls: 0 for no effect and ±100 for the full control effect.

Activity change, inconclusive:
COc1ccc(OC2C(=O)N(Cc3ccc(F)cc3)C2c2ccc(OC)c(OC)c2)cc1 (stereo unspecified) -42.7%, CCn1c(Sc2nc(C)nc3scc(-c4cccs4)c23)n[nH]c1=O -32.6%, Cc1cc(C)cc(N(CC(=O)NC2CC3CCC2C3)S(C)(=O)=O)c1 (stereo unspecified) -42.9%, CCC(c1nnnn1Cc1cccs1)N1CCN(c2nc3ccccc3s2)CC1 (stereo unspecified) -43.6%, Cc1c(/C=N/NC(=O)CNc2ccccc2)c2ccccn2c1C(=O)c1ccc(Cl)cc1 -30.5%, C=CCn1c(N)c(C(=O)NCc2ccco2)sc1=S -35%, Cc1ccccc1-c1cc(C(=O)NCc2cccc(C(F)(F)F)c2)n(CC2CC(c3cccnc3)=NO2)n1 (stereo unspecified) -33.3%, COc1ccc(NC(=O)COC(=O)c2c3c(nc4ccccc24)CCCC3)cc1Cl -30.3%, CC(C)(C)n1nc2c(c1NC(=O)c1cc([N+](=O)[O-])ccc1Cl)CS(=O)(=O)C2 -40%, CCS(=O)(=O)c1nc(S(=O)(=O)c2ccc(C)cc2)c(N2CCN(C)CC2)s1 -42.5%, COc1ccc(S(=O)(=O)N2CCN(C3CCCC(C)C3)CC2)cc1 (stereo unspecified) -39.7%, CC1CCCC(NC(=O)CCNS(=O)(=O)c2ccc(Br)cc2)C1C (stereo unspecified) -39.8%, COc1ccc(C(NC(=O)C2CCN(Cc3ccc(Oc4ccccc4)cc3)CC2)c2ccccc2C)cn1 (stereo unspecified) -38.7%, Cc1scc(C(=O)N/N=C/c2ccc(OCC(C)C)cc2)c1C -42.2%, O=C(CSc1nnc(-c2ccncc2)n1C1CCCCC1)Nc1ccccc1 -31.1%, COc1ccc2nc(N3C(=O)CNC3=S)sc2c1 -40.9%, NC(=O)c1c(NC(=O)c2ccc(N3C(=O)CCC3=O)cc2)sc2c1CCCC2 -41.8%, Cc1nnc(SCC(=O)N/N=C/c2ccc(-c3ccc(C)c(Cl)c3)o2)s1 -31.7%, Fc1cccc(CN2CCN(C(=S)NCCc3ccccc3)CC2)c1 -30.9%, Cc1cccc(C2CC(c3ccc(F)cc3)Nc3nc(N)nn32)c1 (stereo unspecified) -35.2%, Clc1ccc(-c2nc3ccccn3c2CN2CCSCC2)cc1 -35.2%, O=C(COc1ccc(Nc2ccccc2)cc1)Nc1ccncc1 -46.3%, CCN1CCN(CCCNC(=O)CCCn2nc(C)c3sc4ccccc4c3c2=O)CC1 -38.4%, COc1cccc(NC(=O)CSc2nc(O)c(C)c(=O)n2-c2ccc(C)cc2)c1 -38.4%, Cc1ccc(S(=O)(=O)N2CCCN(Cc3nc4ccccc4c(=O)[nH]3)CC2)cc1 -33.4%, O=C(c1cccs1)N1CCN(c2nc3c(F)cc(F)cc3s2)CC1 -32.6%, Oc1ccccc1NCC(O)Cn1ccc2ccccc21 (stereo unspecified) -33.1%, N#C/C(=C(/O)c1ccc(Cl)c([N+](=O)[O-])c1)c1nc2ccccc2[nH]1 -32%

Activity change, inactive:
CCCSc1ccc([C@@H]2[C@H]3C(=O)N(CC)C(=O)[C@H]3[C@]3(C(=O)OC)CCCCN23)cc1 -8.83%, COc1cccc(CC(=O)Nc2cc(S(=O)(=O)N3CCOCC3)ccc2N2CCN(C)CC2)c1 -27.6%, COCCNC(=O)c1cccc(NC(=O)C2=C(C)OCCS2)c1 -0.0618%, COC(=O)c1ccc(NC(=S)NCCC2=CCCCC2)cc1 58.9%, COc1ccc(-n2nc(C(=O)NCC(=O)NCCCN3CCN(C)CC3)c3ccccc3c2=O)cc1 -2.14%, C=CCN1CCN(C(=O)CCc2ccccc2)CC1 3.88%, COCCNC(=O)C1(C)CCCN(C(=O)c2ccccc2C(F)(F)F)C1 (stereo unspecified) 26.3%, O=C(CCNC(=O)N1CC(=O)Nc2ccccc21)Nc1ccc(Br)cc1F 7.92%, CC(C(=O)Nc1ccc(S(N)(=O)=O)cc1)N1CCc2ccccc21 (stereo unspecified) -0.137%, CCOC(=O)N1CCN(S(=O)(=O)c2ccc3c(c2)CCN3C(=O)C2CCC2)CC1 -9.58%, COc1ccc(NC(=O)CNc2ccc(C#N)cc2)cc1 -6.84%, O=C(Nc1ccncc1)c1ccc(Cl)cc1 15.2%, COCCCNC(=O)Cn1cc(C(C)=O)c2ccccc21 -12.7%, CC(=O)Nc1ccc(S(=O)(=O)N(CCCN2CCOCC2)Cc2cccs2)cc1 1.37%, OC(COc1ccccc1)CN1CCN(c2ccccc2)CC1 (stereo unspecified) 16.9%, COC(=O)c1cccc(NC(=O)Cc2ccsc2)c1 -15.2%, OC[C@H]1O[C@@H](c2nc(-c3ccccc3Br)no2)[C@H](O)[C@@H](O)[C@H]1O 19.7%

Activity change, active:
Cc1ccc(/C=C2\SC(N3CCCCC3)=NC2=O)cc1 -66.3%, CCC(C)Sc1ccc(-c2nc3ccc(C)cn3c2NCc2ccccc2)cc1OC (stereo unspecified) -99.6%, Cc1ccccc1-c1nn(-c2ccc(F)cc2F)cc1CNCCCN(C)C -61.6%, Cc1ccc(NCc2nnc(SCC(=O)Nc3cccc(O)c3)n2CC2CCCO2)c(C)c1 (stereo unspecified) -51.2%, O=C1NC[C@H](Cc2ccccc2)N(C[C@H]2CCCN2C[C@H](Cc2ccccc2)N2C[C@H](Cc3ccccc3)N(CC3CCCCCC3)C(=O)C2=O)C1=O -68.6%, CCn1nc(NC(=O)c2ccco2)c2cc3cc(C)ccc3nc21 -50.2%, O=C(CCN1CCN(c2ccccc2)CC1)NNC(=O)Cc1ccc(Br)cc1 -54.8%, N#CC(C#N)=C1C=CC=CN1/C(=C\c1ccco1)C(=O)c1ccccc1 -98.3%, Cc1ccc(-c2nnn3c2nc(Cl)c2ccccc23)cc1 -74.5%, c1ccc2c(c1)CCc1ccccc1C2=C1CCNCC1 -66%, COC(CNC(=O)c1ccc2nc(-c3cccs3)c(-c3cccs3)nc2c1)OC -51.2%
